{
  "source": "PubChem BioAssay AID485297",
  "about": "(National Center for Advancing Translational Sciences (NCATS), 2010)",
  "note": "About 9,100 (2.8%) of roughly 320,000 compounds were called active. Inconclusive results, whose numbers are uncertain, are shown with a selection of clear calls. Calls come from the whole dose curve; as a rule, active = well fitted activation curve with a large enough effect; inconclusive = small, poorly fitted or top-dose-only effect; inactive = no such curve, though single readings can be large or run the other way. Potencies of inconclusive entries are left out as doubtful fits. Potency is the fitted concentration of half-maximal effect; tags give direction and shape of the fitted curve.",
  "data": [
    {"assay": "qHTS Assay for Rab9 Promoter Activators; note: nearly all actives have a fitted effect of over 60% in size", "conditions": "Huh7 Rab9 promoter-luciferase reporter, luminescence, 24 h; series mostly up to 9.22 µM", "how_it_was_run": "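Huh7 cells stably carrying Rab9 promoter–luciferase reporter, plated 1500 cells/well, compound added after 2 h and incubated 24 h at 37 °C; luciferase luminescence then read after 10 min with detection reagent.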", "values": [
      {"smiles": "Cc1c(C(=O)Nc2cccc(F)c2)cnn1-c1ccccc1", "Potency": "active: 1.41 µM"},
      {"smiles": "Cn1ncc(Cl)c1C(=O)Nc1ccc2c(c1)CCC2", "Potency": "inconclusive [activator, partial curve]"},
      {"smiles": "Cc1ccccc1NC(=O)CC(=O)c1ccccc1", "Potency": "inconclusive [activator, partial curve]"},
      {"smiles": "O=C(CCc1ccccc1)Nc1ccc(NC(=O)c2ccco2)nc1", "Potency": "inconclusive [activator, single point]"},
      {"smiles": "CC(=O)c1cc(C#N)c(SCC(=O)C(C)(C)C)nc1C", "Potency": "active: 2.51 µM"},
      {"smiles": "Cc1ccc(-c2nc3ccccc3nc2NN)cc1", "Potency": "inconclusive [activator, single point]"},
      {"smiles": "Cc1ccnc(N(C(=O)c2cccs2)C(=O)c2cccs2)c1", "Potency": "active: 3.55 µM"},
      {"smiles": "NC(=O)c1ccc2c(=O)n3c(-c4cccs4)csc3nc2c1", "Potency": "inconclusive [activator, single point]"},
      {"smiles": "COc1cc(CNC(=O)C2CC2)ccc1OCc1ccccc1", "Potency": "inconclusive [activator, partial curve]"},
      {"smiles": "Cc1nnc(SCc2cccc3ccccc23)s1", "Potency": "inconclusive [activator, partial curve]"},
      {"smiles": "COc1ccc(C(=O)N[C@H](C(=O)NCc2cccs2)C(C)C)cc1", "Potency": "inactive"},
      {"smiles": "Cc1cccc(OCC(=O)NC(C)C(=O)N/N=C/c2c(OCc3ccccc3)ccc3ccccc23)c1", "note": "(stereo not drawn)", "Potency": "inconclusive [activator, single point]"},
      {"smiles": "O=C(CSc1ncccn1)N/N=C/c1ccc2c(c1)OCO2", "Potency": "inconclusive [activator, partial curve]"},
      {"smiles": "Cc1nc(C)c(C(=O)Nc2ncc([N+](=O)[O-])s2)o1", "Potency": "inconclusive [activator, full curve, poor fit]"},
      {"smiles": "Cn1nnnc1SCc1csc(Nc2ccccc2)n1", "Potency": "active: 3.98 µM"},
      {"smiles": "Cc1nc2nc(NC(=O)c3ccco3)nn2c(C)c1Cl", "Potency": "active: 3.16 µM"},
      {"smiles": "O=C(Cn1ncc2c3ccccc3n(Cc3cccc(Cl)c3)c2c1=O)NCc1ccccn1", "Potency": "inactive"},
      {"smiles": "Cc1cc(C)c(C#N)c(N2CCN(CCOc3ccc(Cl)cc3)CC2)n1", "Potency": "inconclusive [activator, single point]"},
      {"smiles": "CCCc1cc(=O)oc2cc(OCC(=O)Nc3ccccn3)ccc12", "Potency": "inconclusive [activator, partial curve]"},
      {"smiles": "Cc1ccc(Cl)cc1NC(=O)Cn1c(C)csc1=O", "Potency": "inactive"},
      {"smiles": "Brc1ccc(-c2csc(N3CCC(c4ccccc4)C3)n2)cc1", "note": "(stereo not drawn)", "Potency": "inconclusive [activator, single point]"},
      {"smiles": "CC(=O)NC1=NC(=O)/C(=C/c2cc(C)n(-c3ccc(NC(C)=O)cc3)c2C)S1", "Potency": "inconclusive [activator, single point]"},
      {"smiles": "NC(N)=NC(=O)c1nc(Cl)c(N)nc1N", "Potency": "inactive"},
      {"smiles": "Cc1cccc2cc(-c3nc4ccc(C(=O)O)cc4[nH]3)c(=O)oc12", "Potency": "inconclusive [activator, full curve]"},
      {"smiles": "CCc1ccc2nc3sc(C(=O)Nc4nnc(CC)s4)c(N)c3cc2c1", "Potency": "inconclusive [activator, partial curve]"},
      {"smiles": "O=C(Cc1ccc(-c2ccccc2)cc1)Nc1ncccc1O", "Potency": "inconclusive [activator, partial curve]"},
      {"smiles": "Cc1ccc(NC(=O)C2CCCN(c3ncccn3)C2)cc1C", "note": "(stereo not drawn)", "Potency": "inconclusive [activator, single point]"},
      {"smiles": "COc1ccc(S(=O)(=O)Cc2ccc(C(=O)N3CCN(c4cc(Cl)ccc4C)CC3)o2)cc1", "Potency": "inactive"},
      {"smiles": "CC(=O)Nc1cccc(OC(=O)N2CCOCC2)c1", "Potency": "inconclusive [activator, single point]"},
      {"smiles": "COc1ccc2cc(CCOC3CCCCO3)ncc2c1", "note": "(stereo not drawn)", "Potency": "active: 0.501 µM"},
      {"smiles": "CSc1ccc(CNC(=O)Cn2nc(C)c3c(C)n(-c4ccc(C)cc4)nc3c2=O)cc1", "Potency": "inactive"},
      {"smiles": "COc1ccc(/C(N)=N/OC(=O)c2cccc([N+](=O)[O-])c2C)cc1OC", "Potency": "inactive"},
      {"smiles": "COc1ccc(NC(=O)Nc2ccccc2F)cc1", "Potency": "active: 0.447 µM"},
      {"smiles": "Cc1ccc(Nc2nc(/N=C/N(C)C)n[nH]2)cc1C", "Potency": "inconclusive [activator, partial curve]"},
      {"smiles": "O=C(Nc1ccc(Cl)cc1Cl)c1ccc2c(c1)OCCO2", "Potency": "active: 0.316 µM"},
      {"smiles": "COc1cc(NC(=O)c2cccc(Br)c2)nc(OC)n1", "Potency": "inconclusive [activator, partial curve, poor fit]"},
      {"smiles": "O=C(O)c1ccc(-c2nc(-c3ccccc3)cs2)cc1", "Potency": "active: 1 µM"},
      {"smiles": "CCN(CC)S(=O)(=O)c1cc(NC(=O)C(=O)c2c(-c3ccccc3)cc3ccccn23)ccc1C", "Potency": "inactive"},
      {"smiles": "CNC(=O)/C(C#N)=C/c1ccc(-c2ccc(Cl)cc2)o1", "Potency": "inconclusive [activator, partial curve]"},
      {"smiles": "COc1ccc(/C=C2\\SC(=O)N(CC(=O)NCCC(C)C)C2=O)cc1OC", "Potency": "inactive"},
      {"smiles": "CCOC(=O)c1c(C)oc2c1c1c(c3ccccc32)OCN(CCCC(=O)O)C1", "Potency": "inconclusive [activator, single point]"},
      {"smiles": "Cc1c(C(=O)NCCC2=CCCCC2)oc2ccc(S(=O)(=O)N3CCC4(CC3)OCCO4)cc12", "Potency": "inactive"},
      {"smiles": "NC(=O)CN1C(=O)C2C3C=CC(C3)C2C1=O", "note": "(stereo not drawn)", "Potency": "inconclusive [activator, single point]"},
      {"smiles": "Cc1cccc(Sc2nc(-c3ccccc3)ncc2C(=O)O)c1", "Potency": "inactive"},
      {"smiles": "Cc1nn(-c2ccccc2)c(C)c1/C=N/Nc1nc2ccccc2[nH]1", "Potency": "active: 0.501 µM"},
      {"smiles": "CCCc1cc(C(=O)NC2CCCC2)no1", "Potency": "inconclusive [activator, partial curve]"},
      {"smiles": "CC(C)Sc1nc(SCC(=O)O)c2c3c(sc2n1)COC(C)(C)C3", "Potency": "inconclusive [activator, partial curve]"},
      {"smiles": "CSc1ccccc1C(=O)Nc1ccc(C)c(C)c1", "Potency": "inconclusive [activator, single point]"},
      {"smiles": "CCC(C)N1C(=O)S/C(=C/c2ccc(N3CCOCC3)cc2C)C1=O", "note": "(stereo not drawn)", "Potency": "inconclusive [activator, partial curve]"},
      {"smiles": "CCNC(=O)NC1(C(=O)N2CCC(Cc3ccccc3)CC2)CCCCC1", "Potency": "inactive"},
      {"smiles": "COc1cccc(CN2CCNC(=O)C2CC(=O)N(C)CC2CCOCC2)c1", "note": "(stereo not drawn)", "Potency": "inactive"},
      {"smiles": "O=C(c1ccc2nc(Cc3cccc(Cl)c3)oc2c1)N1CCOCC1", "Potency": "inconclusive [activator, partial curve]"},
      {"smiles": "CC1CCCN(c2ccc(C(=O)NCC3CCCO3)cn2)C1", "note": "(stereo not drawn)", "Potency": "inconclusive [activator, single point]"},
      {"smiles": "Oc1[nH]c(N=C2N=c3ccccc3=N2)c2ccccc12", "Potency": "inconclusive [activator, full curve]"},
      {"smiles": "Fc1ccccc1CSc1nc2ncc(Br)cc2[nH]1", "Potency": "inconclusive [activator, partial curve, poor fit]"},
      {"smiles": "CCN(CC(=O)NCc1ccc(F)cc1)C(=O)c1ccc(COc2ccccc2)cc1", "Potency": "inconclusive [activator, partial curve]"},
      {"smiles": "COc1ccc(/C(C)=N/Nc2nncc3ccccc23)cc1", "Potency": "active: 0.708 µM"},
      {"smiles": "CC(=O)N(/N=C/c1ccc(C)cc1)c1nc(CCl)cs1", "Potency": "inconclusive [activator, partial curve]"},
      {"smiles": "CCNC(=O)NC(=O)COc1ccccc1C#N", "Potency": "inconclusive [activator, single point]"},
      {"smiles": "NC(=O)N1CCN(C(=O)c2ccco2)CC1", "Potency": "inactive"},
      {"smiles": "Cc1nn(CC2CCCCC2)c(N)c1-c1ccccc1", "Potency": "inconclusive [activator, partial curve, poor fit]"},
      {"smiles": "O=C(Nc1nc2ccccc2s1)NC1CCCCC1", "Potency": "active: 0.631 µM"},
      {"smiles": "Cc1ccc(Nc2nnc(-c3ccc4c(c3)OCO4)o2)c(C)c1", "Potency": "inconclusive [activator, single point]"},
      {"smiles": "O=C1OC(c2ccccc2)=N/C1=C\\C=C\\c1ccco1", "Potency": "inactive"},
      {"smiles": "CCCC(=O)Nc1ccc(C#Cc2ccccc2)cc1", "Potency": "active: 2.82 µM"},
      {"smiles": "O=C(CN(Cc1ccccc1)S(=O)(=O)c1ccc(F)cc1)NCc1cccnc1", "Potency": "inactive"},
      {"smiles": "CC(C)(C)c1ccc(C(=O)NCCCNC(=O)c2cccnc2)cc1", "Potency": "inconclusive [activator, single point]"},
      {"smiles": "O=C(Nc1ccccc1)c1ccccc1N=Cc1ccccc1O", "Potency": "inconclusive [activator, single point]"},
      {"smiles": "O=C(Nc1ccccn1)c1ccc(NC(=O)c2ccco2)cc1", "Potency": "active: 2.24 µM"},
      {"smiles": "Cc1ccc2cc(CN(C)C(=O)C3CCCO3)c(=O)[nH]c2c1", "note": "(stereo not drawn)", "Potency": "inconclusive [activator, partial curve]"},
      {"smiles": "COc1ccc(C(=O)COC(=O)c2ccc(NC(=O)c3ccccc3)cc2)cc1", "Potency": "inactive"},
      {"smiles": "COc1cc(C)ccc1OCc1cc(C(=O)N(C)CCCN2CCOCC2)no1", "Potency": "active: 2.51 µM"},
      {"smiles": "CC(=O)CSc1ncnc2c1cnn2-c1ccccc1", "Potency": "active: 1.12 µM"},
      {"smiles": "OCCC1CN(Cc2cnc(N3CCOCC3)s2)CCN1C1CCCC1", "note": "(stereo not drawn)", "Potency": "inactive"},
      {"smiles": "CCNC(=O)c1ccc(CSc2ccc(Cl)cc2)cc1", "Potency": "inactive"},
      {"smiles": "Cc1nc(-c2ccc(NC(=O)C3CC3)cc2)cs1", "Potency": "active: 2.82 µM"},
      {"smiles": "CCc1ccc2oc(-c3ccc(OC)cc3)cc(=Nc3c(C)n(C)n(-c4ccccc4)c3=O)c2c1", "Potency": "inconclusive [activator, single point]"},
      {"smiles": "COc1ccc(C2=NN(C(C)=O)C(c3ccccc3)C2)cc1", "note": "(stereo not drawn)", "Potency": "inconclusive [activator, partial curve]"}
    ]}
  ]
}
